Here are results for 54 compounds from article PMC4336329 (PLoS ONE, 2015).

Among all 310,000 compounds or so, about 14,000 (4.5%) showed an effect of 50% or more. Effects have a minus sign here. Some of the results follow.
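Also: peak tail current of the secondary pulse compared with the same well before compound.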

The target in this experiment is human ether-à-go-go-related gene (hERG) potassium channel (human, UniProt Q12809). Nature of the experiment: primary screen, population patch clamp on CHO cells stably expressing hERG.
human ether-à-go-go-related gene (hERG) potassium channel, sequence (Q12809 whole entry, looked up): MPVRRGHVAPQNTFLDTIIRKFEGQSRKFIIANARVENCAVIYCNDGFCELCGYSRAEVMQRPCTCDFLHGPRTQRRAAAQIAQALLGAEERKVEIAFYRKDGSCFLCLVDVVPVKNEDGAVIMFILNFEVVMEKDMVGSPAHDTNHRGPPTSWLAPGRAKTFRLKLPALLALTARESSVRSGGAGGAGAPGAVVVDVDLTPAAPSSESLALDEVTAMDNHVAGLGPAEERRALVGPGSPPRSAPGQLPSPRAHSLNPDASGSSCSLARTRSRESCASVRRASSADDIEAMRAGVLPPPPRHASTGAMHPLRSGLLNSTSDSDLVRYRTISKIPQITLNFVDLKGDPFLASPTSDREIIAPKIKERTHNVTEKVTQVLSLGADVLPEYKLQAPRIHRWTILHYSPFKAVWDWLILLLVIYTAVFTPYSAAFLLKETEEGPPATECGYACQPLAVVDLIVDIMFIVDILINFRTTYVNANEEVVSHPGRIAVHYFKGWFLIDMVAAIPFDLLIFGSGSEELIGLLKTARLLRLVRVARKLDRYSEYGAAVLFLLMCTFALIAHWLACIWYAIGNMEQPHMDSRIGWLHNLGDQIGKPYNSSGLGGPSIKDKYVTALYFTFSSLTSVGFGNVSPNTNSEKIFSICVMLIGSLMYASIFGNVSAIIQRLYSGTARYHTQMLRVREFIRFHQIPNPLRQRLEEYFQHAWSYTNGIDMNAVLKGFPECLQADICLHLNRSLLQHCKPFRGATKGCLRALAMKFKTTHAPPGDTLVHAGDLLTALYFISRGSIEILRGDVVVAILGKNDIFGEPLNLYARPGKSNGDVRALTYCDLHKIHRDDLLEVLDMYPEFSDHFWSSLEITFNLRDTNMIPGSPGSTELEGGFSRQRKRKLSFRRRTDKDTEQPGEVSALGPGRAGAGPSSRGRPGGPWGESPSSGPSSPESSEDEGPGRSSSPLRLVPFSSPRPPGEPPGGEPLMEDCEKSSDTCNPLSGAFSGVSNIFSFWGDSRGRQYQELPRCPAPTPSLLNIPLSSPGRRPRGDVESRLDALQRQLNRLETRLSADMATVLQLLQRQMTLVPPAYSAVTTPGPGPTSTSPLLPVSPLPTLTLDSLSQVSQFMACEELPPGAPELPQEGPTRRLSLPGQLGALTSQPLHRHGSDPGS
Turning to `CCc1c(C(=O)NC2CCCCC2)[nH]c(C)c1C(C)=O`, the “hERG current change (%, negative = inhibition) at 10uM” value was determined as 18.3%. To `S=c1[nH]nc(-c2ccc(Br)cc2)n1Cc1ccco1` belongs 5.97%; to `COc1ccc(N(CC(=O)Nc2ccc3c(c2)OCCO3)S(C)(=O)=O)c(OC)c1`, -6.42%. As to `FC(F)(F)c1cccc(Cc2noc(CN3CCSCC3)n2)c1`, the “hERG current change (%, negative = inhibition) at 10uM” value was 0.814%.

Consider `O=C(NC1CCCC1)C(c1cccnc1)N(Cc1ccccc1)C(=O)c1csnn1` (stereo not drawn), for which the “hERG current change (%, negative = inhibition) at 10uM” value is given as -5.65%. Regarding `Cc1ccc(C(c2sc3nc(C)nn3c2O)N2CCN(CCO)CC2)cc1` (stereo not drawn), the “hERG current change (%, negative = inhibition) at 10uM” value is 1.95%. Turning to `CC(C)(C)n1nc2c(c1NC(=O)c1ccc(S(=O)(=O)N3CCCC3)cc1)CSC2`, the “hERG current change (%, negative = inhibition) at 10uM” value was 1.95%. To `Cc1cccc(COCC(Cc2ccccc2)N2CCN(C(=O)c3cccc(Cl)c3)CCC2=O)c1` (stereo not drawn) belongs -15.1%. To `O=C(O)c1cc([N+](=O)[O-])ccc1NCCO` belongs 4.94%.

For the compound `CC(=O)OC(C(=O)NCc1ccco1)c1cccnc1` (stereo not drawn), the “hERG current change (%, negative = inhibition) at 10uM” value came to 10.1%.

As for `Cc1ccc(NC(=O)CN(C)C(=O)CCOc2cccc(C)c2)cc1`, the “hERG current change (%, negative = inhibition) at 10uM” value is -4.49%. To `FCCCOc1ccc(-c2ccnc(-c3ccccc3)n2)cc1` belongs 13%; to `COc1ccccc1Oc1ccc(S(=O)(=O)Nc2cccnc2)cc1`, 3.02%; to `CC(=O)Oc1ccc2c(c1)C(=O)c1ccccc1CO2`, -14.8%. In the case of `Cc1cc(C)cc(NC(=S)N2CCC(NC(=O)c3ccccc3C)CC2)c1`, the “hERG current change (%, negative = inhibition) at 10uM” value is reported as -0.357%.

As to `CCCOc1cccc(C2/C(=C(/O)c3ccc4c(c3)CC(C)O4)C(=O)C(=O)N2CCN2CCOCC2)c1` (stereo not drawn), the “hERG current change (%, negative = inhibition) at 10uM” value came out at 15.3%.

Regarding `COc1cccc(-n2c(Cc3cc(=O)[nH]c(=O)[nH]3)nnc2SC(C)C)c1`, the “hERG current change (%, negative = inhibition) at 10uM” value is recorded as -3.92%. To `O=C(O)/C(=C\c1ccc(Cl)c([N+](=O)[O-])c1)c1ccc(S(=O)(=O)N2CCCCC2)s1` belongs -2.26%; to `NC(=O)CNC(=O)[C@@H]1CC2(CC(c3ccc(Cl)cc3)=NO2)CN1C(=O)c1ccc(Br)cc1` (stereo partly drawn), 8.29%; to `CCN(Cc1ccccc1)C(=O)CCS(=O)(=O)c1ccc2c(c1)oc(=O)n2C`, -0.651%. With `CC(=O)NC(CC(=O)OCC(=O)c1ccc(NC(=O)CC(C)C)cc1)c1ccccc1` (stereo not drawn), the “hERG current change (%, negative = inhibition) at 10uM” value is -24.6%. Turning to `CCOc1ccc(S(=O)(=O)N(C)c2ccc(OCC(=O)NC3=NCCS3)cc2)cc1`, the “hERG current change (%, negative = inhibition) at 10uM” value is -8.28%. On to `O=C(O)/C=C\C(=O)Nc1cccc(NC(=O)c2ccccc2)c1`, for which the “hERG current change (%, negative = inhibition) at 10uM” value is on record as 28.8%. For the compound `Clc1ccccc1CN1CCN(c2ccccc2Cl)CC1`, the “hERG current change (%, negative = inhibition) at 10uM” value was determined as 16%. As for `COc1cccc(CC(=O)OC(C)C(=O)NCc2ccc3c(c2)OCO3)c1` (stereo not drawn), the “hERG current change (%, negative = inhibition) at 10uM” value is given as -3.97%. To `COc1ccccc1N(CC(O)COc1ccccc1C)S(=O)(=O)c1ccccc1` (stereo not drawn) belongs 5.48%.

As for `CCOc1cc(NC(=O)c2ccccc2C(=O)O)c(OCC)cc1NC(=O)c1ccccc1F`, the “hERG current change (%, negative = inhibition) at 10uM” value was -15.9%. Turning to `Cc1nnc(Sc2nc3c(c(=O)n(C)c(=O)n3C)n2Cc2ccc(Cl)cc2)s1`, the “hERG current change (%, negative = inhibition) at 10uM” value was -26.9%.

Turning to `CN(C)CC1CCCCC1OC(=O)/C=C/c1ccccc1.Cl` (stereo not drawn), the “hERG current change (%, negative = inhibition) at 10uM” value is reported as -33.2%. Consider `N/C(=N\OC(=O)c1ccc2c(c1)OCO2)c1ccc([N+](=O)[O-])cc1`, for which the “hERG current change (%, negative = inhibition) at 10uM” value stood at 10.8%. As for `CCOc1ccc(N2CC(C(=O)OCC(=O)c3ccc(OC)cc3)CC2=O)cc1` (stereo not drawn), the “hERG current change (%, negative = inhibition) at 10uM” value is given as -56%. Take `O=C(CNC(=O)c1cc(Cl)cc([N+](=O)[O-])c1)OCC(=O)N1CCCCC1`: the “hERG current change (%, negative = inhibition) at 10uM” value came to 4.79%.

With `COc1ccc(N(CC(=O)N/N=C/c2ccccc2F)S(=O)(=O)c2ccccc2)cc1`, the “hERG current change (%, negative = inhibition) at 10uM” value is reported as 7.51%.

As to `Cc1nnsc1C(=O)N(Cc1ccccc1)C(C)C`, the “hERG current change (%, negative = inhibition) at 10uM” value amounted to 6.73%.

With `CCNC(=O)CON=C1c2ccccc2-c2ccccc21`, the “hERG current change (%, negative = inhibition) at 10uM” value is on record as -7.02%.

With `COc1ccccc1CC(=O)Nc1ncc(C)s1`, the “hERG current change (%, negative = inhibition) at 10uM” value amounted to 9.97%. Take `Cc1cccc(NC(=O)CSc2nnc(CN3CCOCC3)n2C)c1C`: the “hERG current change (%, negative = inhibition) at 10uM” value came out at 29.9%.

Take `Cc1nc2ccc(S(=O)(=O)NCC(=O)N3CCC(C)CC3)cc2s1`: the “hERG current change (%, negative = inhibition) at 10uM” value is on record as 17.2%. To `COc1ccc(NS(=O)(=O)c2cccc(C(=O)NNC(=O)c3ccccc3O)c2)cc1` belongs -3.73%; to `CCOC(=O)C1=C(C)N(CCCCCC(=O)O)C(=O)NC1c1cccc([N+](=O)[O-])c1` (stereo not drawn), 17.1%. The figure for `O=C(COC(=O)CNS(=O)(=O)c1ccc2ccccc2c1)Nc1ccc2c(c1)OCO2` is 7.2%; for `Cc1nc(COC(=O)c2ccc(CO)cc2)cs1` it is 14.1%. Turning to `C/C(N)=C(/C#N)C(=O)CSc1nc2ccccc2c(=O)n1-c1ccccc1C`, the “hERG current change (%, negative = inhibition) at 10uM” value was 6.46%. The figure for `CCOc1ccc(OCC)c(S(=O)(=O)NCc2ccc3c(c2)OCO3)c1` is -19.1%; for `O=C(/C=C/Nc1ccc(F)cc1Br)c1ccccc1` it is 11.9%.

As to `COc1ccccc1-n1c(SCC(=O)NCc2ccc3c(c2)OCO3)nc2cc([N+](=O)[O-])ccc21`, the “hERG current change (%, negative = inhibition) at 10uM” value was -18.1%. In the case of `CC(=Nc1cc(C(=O)c2ccccc2)ccc1N)C1=C(O)CC(C)(C)CC1=O`, the “hERG current change (%, negative = inhibition) at 10uM” value stood at 6.72%. To `COc1cc(/C=C/C(=O)OCC(=O)NC(=O)NC(C)(C)C)ccc1O` belongs -14.5%. As for `CCCCn1c(N)c(N(CC(C)C)C(=O)CN(C)S(=O)(=O)c2ccc(NC(C)=O)cc2)c(=O)[nH]c1=O`, the “hERG current change (%, negative = inhibition) at 10uM” value worked out at 11.3%. The figure for `CSc1ccc(CN2CCN(c3ccccc3C)CC2)cc1.O=C(O)C(=O)O` is -54.5%; for `O=C(Nc1cc2c(cc1Cl)OCCCO2)c1ccco1` it is -17.7%; for `FC(F)(F)c1ccnc(NCc2ccc(Cl)cc2)n1` it is -7.18%.

Turning to `O=C(CCNC(=O)Cn1ccc2ccccc2c1=O)NCCCN1CCN(c2ccccc2F)CC1`, the “hERG current change (%, negative = inhibition) at 10uM” value is recorded as 10.1%. For `C=CCNC(=S)N1CC2(C)CN(C(=S)NCC=C)CC(C)(C1)C2=O`, the “hERG current change (%, negative = inhibition) at 10uM” value came to 21.3%.
